# Laboratory results published in the supplement of paper PMC8728848.
# Some of the results follow.
# B1: Pa IMPa (Pseudomonas aeruginosa), Q9I5W4 (protein)
# chain: MSLSTTAFPSLQGENMSRSPIPRHRALLAGFCLAGALSAQAATQEEILDAALVSGDSSQLTDSHLVALRLQQQVERIRQTRTQLLDGLYQNLSQAYDPGAASMWVLPANPDNTLPFLIGDKGRVLASLSLEAGGRGLAYGTNVLTQLSGTNAAHAPLLKRAVQWLVNGDPGAATAKDFKVSVVGVDKTAALNGLKSAGLQPADAACNALTDASCASTSKLLVLGNGASAASLSATVRARLQAGLPILFVHTNGWNQSSTGQQILAGLGLQEGPYGGNYWDKDRVPSSRTRTRSVELGGAYGQDPALVQQIVDGSWRTDYDWSKCTSYVGRTTCDDVPGLSDFSKRVDVLKGALDAYNQKAQNLFALPGTTSLRLWLLWADAVRQNIRYPMDKAADTARFQETFVADAIVGYVREAGAAQKELGSYAGQRQQSMPVSGSEETLTLTLPSAQGFTAIGRMAAPGKRLSIRIEDAGQASLAVGLNTQRIGSTRLWNTRQYDRPRFLKSPDIKLQANQSVALVSPYGGLLQLVYSGATPGQTVTVKVTGAASQPFLDIQPGEDSSQAIADFIQALDADKADWLEIRSGSVEVHAKVEKVRGSIDKDYGGDVQRFIRELNEVFIDDAYTLAGFAIPNQAKTPAIQQECAARGWDCDSETLHKLPGTQHINVDQYAQCGGGCSGNPYDQTWGLNPRGWGESHELGHNLQVNRLKVYGGRSGEISNQIFPLHKDWRVLREFGQNLDDTRVNYRNAYNLIVAGRAEADPLAGVYKRLWEDPGTYALNGERMAFYTQWVHYWADLKNDPLQGWDIWTLLYLHQRQVDKSDWDANKAALGYGTYAQRPGNSGDASSTDGNDNLLLGLSWLTQRDQRPTFALWGIRTSAAAQAQVAAYGFAEQPAFFYANNRTNEYSTVKLLDMSQGSPAWPFP
# Columns and labels:
# Test in all cases: glycan array binding signal (z-score within array); higher = stronger binding
# Settings in all cases: glycan notation: IUPAC condensed, linker removed
# [1] = molecular target: GlcNAc(b1-3)Gal(b1-4)GlcNAc(b1-3)Gal(b1-4)GlcNAc(b1-3)GalNAc
# Summary of the method: (§1)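 The binding signal is a Z-score computed within each array. Data were drawn from 3228 arrays in the Consortium for Functional Glycomics database, restricted to those with a known protein sequence. Scores were averaged over arrays of the same protein sequence at different concentrations or buffers, and over linkers, and negative values can be taken as non-binding.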
# [2] = molecular target: GlcNAc(b1-3)Gal(b1-4)GlcNAc(b1-3)GalNAc
# Summary of the method: as §1
# [3] = molecular target: GlcNAc(b1-3)Gal(b1-4)GlcNAc(b1-3)[GlcNAc(b1-3)Gal(b1-4)GlcNAc(b1-3)]GalNAc
# Summary of the method: as §1
# [4] = molecular target: GlcNAc(b1-3)Gal(b1-4)GlcNAc(b1-6)[Gal(b1-3)]GalNAc
# Summary of the method: as §1
# [5] = molecular target: GlcNAc(b1-3)Gal(b1-4)GlcNAc(b1-6)[GlcNAc(b1-3)Gal(b1-3)]GalNAc
# Summary of the method: as §1
# [6] = molecular target: GlcNAc(b1-3)Gal(b1-4)GlcNAc(b1-6)[GlcNAc(b1-3)]Gal(b1-4)GlcNAc
# Summary of the method: as §1
# GlcNAc(b1-3)GalNAc = molecular target: GlcNAc(b1-3)GalNAc
# Summary of the method: as §1
# GlcNAc(b1-3)Man = molecular target: GlcNAc(b1-3)Man
# Summary of the method: as §1
# [7] = molecular target: GlcNAc(b1-3)[GlcNAc(b1-4)][GlcNAc(b1-6)]GlcNAc
# Summary of the method: as §1
# [8] = molecular target: GlcNAc(b1-3)[GlcNAc(b1-6)]Gal(b1-4)GlcNAc
# Summary of the method: as §1
# [9] = molecular target: GlcNAc(b1-3)[GlcNAc(b1-6)]GalNAc
# Summary of the method: as §1
# [10] = molecular target: GlcNAc(b1-4)Gal(b1-4)GlcNAc
# Summary of the method: as §1
# GlcNAc(b1-4)GlcNAc = molecular target: GlcNAc(b1-4)GlcNAc
# Summary of the method: as §1
# [11] = molecular target: GlcNAc(b1-4)GlcNAc(b1-4)GlcNAc
# Summary of the method: as §1
# [12] = molecular target: GlcNAc(b1-4)GlcNAc(b1-4)GlcNAc(b1-4)GlcNAc(b1-4)GlcNAc
# Summary of the method: as §1
# [13] = molecular target: GlcNAc(b1-4)GlcNAc(b1-4)GlcNAc(b1-4)GlcNAc(b1-4)GlcNAc(b1-4)GlcNAc
# Summary of the method: as §1
# [14] = molecular target: GlcNAc(b1-4)[GlcNAc(b1-6)]GalNAc
# Summary of the method: as §1
# [15] = molecular target: GlcNAc(b1-6)Gal(b1-4)GlcNAc
# Summary of the method: as §1
# GlcNAc(b1-6)GalNAc = molecular target: GlcNAc(b1-6)GalNAc
# Summary of the method: as §1
# [16] = molecular target: GlcNAc6S(b1-3)Gal(b1-4)GlcNAc
# Summary of the method: as §1
# Kdn(a2-3)Gal(b1-3)GalNAc = molecular target: Kdn(a2-3)Gal(b1-3)GalNAc
# Summary of the method: as §1
# Kdn(a2-3)Gal(b1-3)GlcNAc = molecular target: Kdn(a2-3)Gal(b1-3)GlcNAc
# Summary of the method: as §1
# Kdn(a2-3)Gal(b1-4)Glc = molecular target: Kdn(a2-3)Gal(b1-4)Glc
# Summary of the method: as §1
# Kdn(a2-3)Gal(b1-4)GlcNAc = molecular target: Kdn(a2-3)Gal(b1-4)GlcNAc
# Summary of the method: as §1
# [17] = molecular target: Kdn(a2-3)Gal(b1-4)[Fuc(a1-3)]GlcNAc
# Summary of the method: as §1
# Kdn(a2-6)Gal(b1-4)GlcNAc = molecular target: Kdn(a2-6)Gal(b1-4)GlcNAc
# Summary of the method: as §1
# [18] = molecular target: Man(a1-2)Man(a1-2)Man(a1-3)Man
# Summary of the method: as §1
# [19] = molecular target: Man(a1-2)Man(a1-2)Man(a1-6)[Man(a1-3)]Man
# Summary of the method: as §1
# Man(a1-2)Man(a1-3)Man = molecular target: Man(a1-2)Man(a1-3)Man
# Summary of the method: as §1
# [20] = molecular target: Man(a1-2)Man(a1-3)[Man(a1-2)Man(a1-6)]Man
# Summary of the method: as §1
binder,measurement,setting,value
B1,glycan array binding signal (z-score),[1],-0.44
same,glycan array binding signal (z-score),[2],0.057
same,glycan array binding signal (z-score),[3],17.5
same,glycan array binding signal (z-score),[4],-0.146
same,glycan array binding signal (z-score),[5],0.366
same,glycan array binding signal (z-score),[6],-0.386
same,glycan array binding signal (z-score),GlcNAc(b1-3)GalNAc,-0.21
same,glycan array binding signal (z-score),GlcNAc(b1-3)Man,-0.076
same,glycan array binding signal (z-score),[7],-0.444
same,glycan array binding signal (z-score),[8],0.874
same,glycan array binding signal (z-score),[9],-0.365
same,glycan array binding signal (z-score),[10],-0.196
same,glycan array binding signal (z-score),GlcNAc(b1-4)GlcNAc,0.044
same,glycan array binding signal (z-score),[11],-0.238
same,glycan array binding signal (z-score),[12],-0.309
same,glycan array binding signal (z-score),[13],-0.284
same,glycan array binding signal (z-score),[14],-0.256
same,glycan array binding signal (z-score),[15],-0.185
same,glycan array binding signal (z-score),GlcNAc(b1-6)GalNAc,-0.516
same,glycan array binding signal (z-score),[16],0.718
same,glycan array binding signal (z-score),Kdn(a2-3)Gal(b1-3)GalNAc,0.647
same,glycan array binding signal (z-score),Kdn(a2-3)Gal(b1-3)GlcNAc,-0.49
same,glycan array binding signal (z-score),Kdn(a2-3)Gal(b1-4)Glc,-0.129
same,glycan array binding signal (z-score),Kdn(a2-3)Gal(b1-4)GlcNAc,-0.467
same,glycan array binding signal (z-score),[17],-0.249
same,glycan array binding signal (z-score),Kdn(a2-6)Gal(b1-4)GlcNAc,-0.243
same,glycan array binding signal (z-score),[18],-0.474
same,glycan array binding signal (z-score),[19],-0.142
same,glycan array binding signal (z-score),Man(a1-2)Man(a1-3)Man,-0.432
same,glycan array binding signal (z-score),[20],-0.128
